Reference: PubChem BioAssay AID1963576 (National Center for Advancing Translational Sciences (NCATS), 2024)
The campaign covered roughly 46,000 compounds. About 60 (0.1%) were called active. Inconclusive results (about 3%) are left out. Calls follow the shape of the dose curve; as a rule, active = well fitted inhibition curve with a large enough effect; inconclusive = small, poorly fitted or top-dose-only effect; inactive = no such curve, though single readings can be large or run the other way. This is one part of the list.

Experiment: Primary qHTS assay for Inhibitors of ovarian cancer metastasis using an organotypic tumor microenvironment (TME) model. Also: nearly all actives have a fitted effect of over 65% in size.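 As to activity change, negative = inhibition: plate controls were DMSO wells for no effect and tomatine positive control wells for full effect.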
Conditions: SKOV3ip1-GFP adhesion/invasion on 3D omental model, fluorescence; series mostly up to 45.8 µM; activity change, negative = inhibition: at the top concentration
Method in brief: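 Primary human omental fibroblast/mesothelial 3D culture pre-formed 48 h. SKOV3ip1-GFP cells added with compounds (0.36-46 umol/L), incubated 2 h RT/16 h 37 C, fixed; GFP cells quantified at 488/509 nm.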

Structure (SMILES) | activity change, negative = inhibition | outcome
CCN1C(=O)C(O)(c2c[nH]c3ccccc23)c2cc(Br)ccc21 (configuration not stated) | inactive: 2.12% | 
CCc1cccc(C)c1NS(=O)(=O)c1ccc2c(c1)CC(C)N2C(=O)C1CC1 (configuration not stated) | inactive: 7.81% | 
Cc1ccc(CNc2nc3ccccc3n3cnnc23)cc1 | inactive: -9.01% | 
Cc1csc2nc(COC(=O)c3ccc(NC(=O)C(C)Oc4ccccc4)cc3)cc(=O)n12 (configuration not stated) | inactive: -4.25% | 
CC(C)Cc1ccc(C(C)C(=O)O)cc1 (configuration not stated) | inactive: 0.648% [at 23.2 µM] | 
CCC(=O)Nc1nnc(S(=O)(=O)N2c3ccccc3CC2C)s1 (configuration not stated) | inactive: -3.92% | 
Cc1ccc2oc3c(c(=O)c2c1)C(c1ccc(O)cc1)N(c1nc(C)c(C)s1)C3=O (configuration not stated) | inactive: 1.93% | 
COc1ccccc1C(=O)N(c1ccc(C)cc1)S(=O)(=O)c1ccc(Cl)cc1 | inactive: -15.3% | 
CCC(=O)N1c2ccccc2CC1C(=O)NCc1cc(Br)ccc1OC (configuration not stated) | inactive: 5.26% | 
Cc1cc(C)c2oc(-c3cccc(NC(=O)c4ccc(-c5cccc([N+](=O)[O-])c5)o4)c3)nc2c1 |  | inactive
Cc1cccc(NC(=O)C2CCCN2S(=O)(=O)c2ccc3c(c2)n(C)c(=O)c(=O)n3C)c1 (configuration not stated) | inactive: 1.88% | 
O=C(NCc1cccc(F)c1)c1ccccc1NC(=O)c1nsc2ccccc12 | inactive: 0.409% | 
CCCC1=Nc2cc(C(=O)N3CCC(C(=O)OCC)CC3)ccc2Sc2ccccc21 |  | inactive
COc1ccc(NC(=O)c2cnc(N3CCCC3)nc2)cc1OC | inactive: 2.87% | 
COc1ccc(-n2c(SCC(=O)NCc3ccc(F)cc3)nc3c([nH]c4ccccc43)c2=O)cc1 | inactive: -5.85% | 
CC(C)N1[N]C(=C2C=c3cc(O)ccc3=N2)c2c(N)ncnc21 | inactive: 19.7% | 
O=C(c1ccccc1)N1CCc2cc(CNS(=O)(=O)c3ccc(Cl)s3)ccc21 | inactive: -9.59% | 
O=C(CCSCc1cccc(Cl)c1)NCCc1ccc(Cl)cc1 | inactive: -6.1% | 
Cc1nn2cc(-c3ccc(OC(C)C)cc3)nc2s1 | inactive: 3.31% | 
Cn1c(=O)n(C)c2cc(N3CCOCC3)c(NS(=O)(=O)c3cccc(C#N)c3)cc21 | inactive: 0.041% | 
CC(=O)Nc1cccc(NC(=O)Cn2cnc3c(oc4ccccc43)c2=O)c1 | inactive: -16.4% | 

Structure (SMILES) | activity change, negative = inhibition | outcome
Cc1oc(-c2ccc(Cl)cc2)nc1Cn1c(=O)cc(C)c2c(C)nn(-c3ccccc3)c21 | inactive: 1.97% | 
Cc1cccc(-c2nc3c(cnn3-c3ccccc3)c(=O)n2-c2ccc(Cl)cc2)c1 | inactive: 2.09% | 
Cc1ccc(CNC(=O)CSc2nc3ccccc3nc2Cc2ccc(C)cc2)cc1 | inactive: 19.9% | 
CCOc1ccc(NC(=O)c2c(C)oc3nc(C)nc(N4CCOCC4)c23)cc1 | inactive: 2.25% | 
Cc1ccc(CCNC(=O)C2CCN(S(=O)(=O)c3ccc4c(ccn4C)c3)CC2)cc1 | inactive: -2.3% | 
Cc1ccc(-c2nc3c4c(-c5ccccc5)c(-c5ccccc5)oc4ncn3n2)cc1 |  | inactive
COc1ccc(S(=O)(=O)NCC(c2ccco2)S(=O)(=O)c2cccs2)cc1F (configuration not stated) | inactive: 7.42% | 
COc1ccc(NC(=O)CSc2nc(C)cc(C)c2C(=O)Nc2ccccc2OC)cc1 | inactive: 5.56% | 
COc1ccccc1CCNC(=O)C(C)Sc1nc(-c2ccccc2)cc(C(F)(F)F)n1 (configuration not stated) | inactive: 7.77% | 
COc1ccc(C(=O)Nc2nc(-c3nnn(-c4ccc(C(C)C)cc4)c3C)ns2)cc1 |  | inactive
Cc1noc(/C=C/c2ccccc2F)c1S(=O)(=O)N1CCC(C(=O)N2CCOc3ccccc32)CC1 | inactive: -6.67% | 
CCc1ccc(NC(=O)Cn2c(=O)n(CCC(=O)NCCc3ccc(Cl)cc3)c(=O)c3ccccc32)cc1 |  | inactive
COc1ccc(C)cc1NC(=O)Nc1cccc(-c2noc(C)n2)c1 | inactive: 11.6% | 
CCCOc1ccc(CNC(=O)c2[nH]c3cc(OC)ccc3c2Sc2ccccc2)cc1 | inactive: 0.974% | 
COc1ccc(Nc2ncnc3c2nc2n3CCCCC2)cc1 | inactive: -5.65% | 
Cc1ccc(-c2cc(-c3ccccc3)c(C#N)c(SCC(O)CS(=O)(=O)Cc3ccccc3)n2)cc1 (configuration not stated) | inactive: -5.75% | 
COc1ccc(F)cc1S(=O)(=O)Nc1cccc(-c2ccc(N3CCC(C)CC3)nn2)c1 | inactive: -9.03% | 
CCN(C(=O)CSc1nc2ccccc2n1Cc1ccc(F)cc1Cl)c1ccccc1 | inactive: 6.05% | 
O=C1C(c2ccc(F)cc2)N(CCc2ccccc2)C(=O)CN1C1CCCCCC1 (configuration not stated) | inactive: -16.2% | 
COc1ccc(CCNC(=O)c2c(C)oc3ncn(C)c(=O)c23)c(OC)c1 | inactive: 1.91% | 
CC(=O)Nc1ccc(N(C(=O)Cn2nnc3ccccc32)C(C(=O)NCc2ccccc2)c2ccc(C)cc2)cc1 (configuration not stated) | inactive: 15.6% | 

Structure (SMILES) | activity change, negative = inhibition | outcome
CN(C)c1ccc(Nc2ncnc3sc4c(c23)CCCC4)cc1 | inactive: 13.1% | 
COC(=O)c1ccccc1NC(=O)CCCn1c(=O)c2cccn2c2cccnc21 |  | inactive
COc1ccc(CC(=O)NCc2nc3cccnc3n2Cc2ccccc2)cc1 | inactive: 10.2% | 
Cc1ccc(Cl)cc1NC(=O)CN1C(=O)CCc2ccccc21 | inactive: 1.19% | 
CCCCNc1oc(-c2ccc(COc3ccc(OC)cc3)o2)nc1C#N | inactive: -3.22% | 
COc1ccc(C)cc1N(C)C(=O)CCc1nc(-c2ccccc2F)no1 | inactive: -15.3% | 
CCOC(=O)c1c(C)[nH]c(C)c1S(=O)(=O)N1CCC(C(=O)NCc2ccccc2Cl)CC1 | inactive: 7.38% | 
Cc1cc(NC(=O)CN2CCC(C)CC2)nc2c1c(=O)oc1ccccc12 | inactive: 10% | 
CCOC(=O)C(Cc1c[nH]c2ccccc12)NC(=O)COc1ccc(CC)cc1 (configuration not stated) |  | inactive
O=c1c2cn[nH]c2nc(SCc2c(F)cccc2F)n1-c1ccc(Cl)cc1 | inactive: 9.43% | 
CCCCN(CC)CCCNC(=O)Cn1ncc2c([nH]c3ccc(C)cc32)c1=O | inactive: -7.08% | 
COc1cccc(N2CCN(S(=O)(=O)c3cc(-c4cc(C)no4)ccc3C)CC2)c1 | inactive: 18.1% | 
CC(C)COc1ccc(C(=O)Nc2cc(-c3ccccc3)no2)cc1 | inactive: -5.76% | 
O=C(Cn1cnc2ccccc2c1=O)NCCC(=O)Nc1ccc(F)cc1 | inactive: 13% | 
O=C(NCc1ccco1)c1ccc2c(c1)N(Cc1ccc(F)cc1)C(=O)c1ccccc1S2(=O)=O |  | inactive
COc1ccc(N(CC(=O)N2CCN(c3ccc(F)cc3)CC2)S(=O)(=O)c2c(C)noc2C)cc1 | inactive: 6.98% | 
CCOc1cccc(C(=O)Nc2nc3c(s2)CC(C(C)(C)C)CC3)c1 (configuration not stated) | inactive: -6.48% | 
CC(=O)N1c2ccc(S(=O)(=O)Nc3ccc(Cl)cc3C)cc2CC1C (configuration not stated) |  | inactive
COc1cc(OC)cc(-c2nc3n(n2)C(c2ccccc2)C(C(N)=O)=C(C)N3)c1 (configuration not stated) | inactive: -11.9% | 
Cc1ccc(/C=C/C(=O)Nc2ccccc2C(N)=O)o1 | inactive: 0.693% | 
